Results are given in words; binding and its absence hold for the method and conditions named. For some of these results: Binding seen in cells or lysates may run through a third protein. Some results given as binding are weak or reduced against the parent protein; the word gives no strength.
T1: RabGAP5 (endogenous) (mouse (endogenous in MEF cells)) (UniProt Q8VCZ6)
T1 sequence: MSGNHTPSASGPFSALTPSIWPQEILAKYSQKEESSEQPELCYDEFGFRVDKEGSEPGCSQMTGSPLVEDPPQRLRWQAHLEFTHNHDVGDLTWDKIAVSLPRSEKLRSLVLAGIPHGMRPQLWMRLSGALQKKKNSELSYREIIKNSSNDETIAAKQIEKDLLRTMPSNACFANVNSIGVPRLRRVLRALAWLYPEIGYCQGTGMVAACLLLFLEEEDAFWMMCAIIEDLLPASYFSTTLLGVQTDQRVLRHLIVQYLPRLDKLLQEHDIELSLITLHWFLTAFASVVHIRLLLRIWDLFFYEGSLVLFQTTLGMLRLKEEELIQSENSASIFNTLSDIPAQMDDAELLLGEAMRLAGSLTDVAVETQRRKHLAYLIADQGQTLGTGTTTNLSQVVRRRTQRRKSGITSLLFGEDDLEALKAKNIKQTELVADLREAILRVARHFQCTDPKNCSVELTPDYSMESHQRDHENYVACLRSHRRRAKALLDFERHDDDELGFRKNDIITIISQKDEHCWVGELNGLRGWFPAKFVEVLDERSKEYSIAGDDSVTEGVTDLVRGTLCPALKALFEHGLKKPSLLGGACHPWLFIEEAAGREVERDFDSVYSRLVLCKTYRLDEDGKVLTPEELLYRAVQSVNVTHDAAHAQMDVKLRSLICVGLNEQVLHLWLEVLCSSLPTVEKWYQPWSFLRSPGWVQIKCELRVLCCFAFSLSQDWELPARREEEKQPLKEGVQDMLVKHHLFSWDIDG

The chains behind the UniProt entries cited, without tags or fusion partners. Where a name states a change or a piece, a line headed by the entry shows the natural chain unless it says otherwise. Residues count along the entry.
UniProt Q9JM13, residues 396-491: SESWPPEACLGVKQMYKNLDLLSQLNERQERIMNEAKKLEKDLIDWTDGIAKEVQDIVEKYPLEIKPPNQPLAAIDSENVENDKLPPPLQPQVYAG
UniProt Q62848, residues 137-415: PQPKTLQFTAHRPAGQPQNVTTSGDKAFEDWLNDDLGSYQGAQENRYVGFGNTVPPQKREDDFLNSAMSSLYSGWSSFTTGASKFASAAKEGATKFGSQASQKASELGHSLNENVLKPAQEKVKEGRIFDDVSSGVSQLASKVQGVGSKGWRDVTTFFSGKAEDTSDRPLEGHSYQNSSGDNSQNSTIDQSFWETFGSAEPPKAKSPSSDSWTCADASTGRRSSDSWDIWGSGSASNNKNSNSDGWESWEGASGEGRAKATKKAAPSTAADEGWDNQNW
UniProt P22892: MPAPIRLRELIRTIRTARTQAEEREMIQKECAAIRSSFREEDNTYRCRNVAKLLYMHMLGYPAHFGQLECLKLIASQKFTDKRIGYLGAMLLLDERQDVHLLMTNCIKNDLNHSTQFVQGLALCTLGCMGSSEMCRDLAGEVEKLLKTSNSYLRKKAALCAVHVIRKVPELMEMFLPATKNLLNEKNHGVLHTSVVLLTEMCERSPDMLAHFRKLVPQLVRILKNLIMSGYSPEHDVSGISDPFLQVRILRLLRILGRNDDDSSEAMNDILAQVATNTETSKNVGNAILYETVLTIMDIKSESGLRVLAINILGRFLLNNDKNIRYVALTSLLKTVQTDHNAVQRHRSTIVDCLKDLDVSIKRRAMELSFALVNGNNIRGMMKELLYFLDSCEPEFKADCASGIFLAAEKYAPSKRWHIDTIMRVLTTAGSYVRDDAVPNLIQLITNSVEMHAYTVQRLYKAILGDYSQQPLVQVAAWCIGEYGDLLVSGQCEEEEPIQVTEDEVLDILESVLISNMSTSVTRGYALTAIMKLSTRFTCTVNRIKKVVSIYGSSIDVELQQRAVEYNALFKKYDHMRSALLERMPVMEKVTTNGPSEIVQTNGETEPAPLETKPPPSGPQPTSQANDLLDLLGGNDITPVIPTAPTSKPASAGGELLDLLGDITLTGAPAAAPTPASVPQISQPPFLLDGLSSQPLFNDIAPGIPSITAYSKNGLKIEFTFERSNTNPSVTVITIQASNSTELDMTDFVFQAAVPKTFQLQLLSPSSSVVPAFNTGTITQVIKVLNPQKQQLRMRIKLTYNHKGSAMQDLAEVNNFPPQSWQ
UniProt Q9EPJ9: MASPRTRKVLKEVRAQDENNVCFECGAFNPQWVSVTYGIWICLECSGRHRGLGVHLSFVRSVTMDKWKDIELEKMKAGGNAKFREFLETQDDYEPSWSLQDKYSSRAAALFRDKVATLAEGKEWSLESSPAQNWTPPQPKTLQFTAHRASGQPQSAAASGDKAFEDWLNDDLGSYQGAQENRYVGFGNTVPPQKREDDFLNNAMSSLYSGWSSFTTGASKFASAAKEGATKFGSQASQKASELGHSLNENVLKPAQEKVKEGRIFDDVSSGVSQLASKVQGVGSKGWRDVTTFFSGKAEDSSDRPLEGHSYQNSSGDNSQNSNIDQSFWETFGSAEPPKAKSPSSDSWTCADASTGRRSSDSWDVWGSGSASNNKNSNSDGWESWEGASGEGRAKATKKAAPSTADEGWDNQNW

B1: Rabaptin-5α (protein, UniProt O35551 1-862)
chain: MAQPGPAPQPDVSLQQRVAELEKINAEFLRAQQQLEQEFNQKRAKFKELYLAKEEDLKRQNAVLQAAQDDLGHLRTQLWEAQAEMENIKAIATVSENTKQEAIDEVKRQWREEVASLQAIMKETVRDYEHQFHLRLEQERAQWAQYRESAEREIADLRRRLSEGQEEENLENEMKKAQEDAEKLRSVVMPMEKEIAALKDKLTEAEDKIKELEASKVKELNHYLEAEKSCRTDLEMYVAVLNTQKSVLQEDAEKLRKELHEVCHLLEQERQQHNQLKHTWQKANDQFLESQRLLMRDMQRMEIVLTSEQLRQVEELKKKDQEEDEQQRVNKRKDNKKTDTEEEVKIPVVCALTQEESSTPLSNEEEHLDSTHGSVHSLDADLMLPSGDPFSKSDNDMFKDGLRRAQSTDSLGTSSSLQSKALGYNYKAKSAGNLDESDFGPLVGADSVSENFDTVSLGSLQMPSGFMLTKDQERAIKAMTPEQEETASLLSSVTQGMESAYVSPSGYRLVSETEWNLLQKEVHNAGNKLGRRCDMCSNYEKQLQGIQIQEAETRDQVKKLQLMLRQANDQLEKTMKEKQELEDFLKQSAEDSSHQISALVLRAQASEVLLEELQQSFSQAKRDVQEQMAVLMQSREQVSEELVRLQKDNDSLQGKHSLHVSLQLAEDFILPDTVEVLRELVLKYRENIVHVRTAADHMEEKLKAEILFLKEQIQAEQCLKENLEETLQLEIENCKEEIASISSLKAELERIKVEKGQLESTLREKSQQLESLQEMKVNLEEQLKKETAAKATVEQLMFEEKNKAQRLQTELDVSEQVQRDFVKLSQTLQVQLERIRQADSLERIRAILNDTKLTDINQLPET

Columns and labels:
[1] = target: T1, RabGAP5 (endogenous) (mouse (endogenous in MEF cells)); assay: proximity ligation; PLA in fixed (4% PFA) wt, σ1B −/− and μ1A −/− MEF cell lines; anti-γ1 with anti-Rab5, anti-Rabex-5 or anti-RabGAP5
[2] = target: Rabex-5/ArfGAP1^U complex (UniProt Q9JM13); assay: pull-down; consecutive pull-down: Rabex-5/ArfGAP1 complexes formed first on beads, then incubated with wt and σ1B −/− synaptosome extracts; anti-γ1 Western blot; only the target purified
[3] = target: 6His-ArfGAP1^U C-terminal domain (UniProt Q62848); assay: pull-down; 6His-ArfGAP1 domains on Ni-NTA agarose beads incubated with supernatants of homogenised synaptosomes of wt and σ1B −/− mouse brains, 4 hours at RT, PBS; Western blot (anti-γ1); only the target purified
[4] = target: GST-Rabex-5 C-terminal aa396-491 domain (UniProt Q9JM13); assay: pull-down; GST fusion on Glutathione Sepharose beads incubated with supernatants of homogenised synaptosomes of wt and σ1B −/− mouse brains, 4 hours at RT, PBS; Western blot; only the target purified
[5] = target: ArfGAP1^U C-terminal domain (aa 137-415) (Gal4 DNA-binding domain fusion) (UniProt Q62848); assay: two-hybrid; yeast three-hybrid (Y3H): γ1 core (1-550) as Gal4 AD fusion, σ1-adaptin free, tested protein or domain as Gal4 BD fusion; yeast strain AH109, growth and interaction assays
[6] = target: Rabex-5 C-terminal aa 396-491 (Gal4 DNA-binding domain fusion) (UniProt Q9JM13); assay: as above
[7] = target: GST-Rabex-5 C-terminal aa396-491 domain (UniProt Q9JM13); assay: pull-down; E. coli-expressed Rabex-5 used to isolate E. coli-expressed ArfGAP1 brain and ubiquitous isoforms; Western blot

Molecule	binding [4]	binding [5]	binding [6]	also measured
AP-1/σ1A complexes of σ1B −/− mice (from UniProt P22892 1-822; O35643 1-943; P35585 1-423; P61967 1-158)	–	–	–	binding [1]: binds; binding [2]: binds; binding [3]: binds
ubiquitous ArfGAP1^U (endogenous) (from UniProt Q9EPJ9 1-414)	binds	–	–	–
γ1/σ1A hemicomplex (γ1 N-terminal core domain 1-550 with σ1A) (from UniProt P22892 1-550; P61967 1-158)	–	binds weakly	no binding	–
γ1/σ1B hemicomplex (γ1 N-terminal core domain 1-550 with σ1B) (from UniProt P22892 1-550; Q9DB50 1-160)	–	binds weakly	binds	–
6His-ArfGAP1^U C-terminal domain (from UniProt Q62848 137-415) (domain or fragment)	–	–	–	binding [7]: binds
B1	binds	–	–	–

— paper PMC4944158
